Several values for one entry are separate records, joined by “and”; a condition that tells them apart may be missing. Equal values may be shown once. Inconclusive results, whose numbers are uncertain, are shown with a selection of clear calls. For some assays here: No potency is given beside an inconclusive call; the fits are too rough. Activity calls are given as the source filed them. Unless noted, the call rests on the fitted dose curve; in most records, active means well fitted curve in the direction sought with a large enough effect in the repeat runs; inconclusive means weak or mixed curves; inactive means no such curve, though single readings can be large; an effect the other way counts as inactive or inconclusive.
Experiments:
[1] = A CellTox Green Cytotoxicity Assay to monitor cytotoxicity in HepG2 cells - 40 hour (AID 1224879); further: nearly all actives have a fitted effect of over 40% in size; further: potency means the concentration at half of the fitted maximal effect
Procedure, shortened: (§1)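 Cytotoxicity was tracked as dead-cell DNA fluorescence in HepG2 cells treated with test compounds at 37 C; each time-point value comes from one kinetic series spanning 0, 8, 16, 24, 32 and 40 h.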

[2] = A CellTox Green Cytotoxicity Assay to monitor cytotoxicity in HEK293 cells - 8 hour (AID 1224884); further: nearly all actives have a fitted effect of over 35% in size; further: potency means the concentration at half of the fitted maximal effect
Procedure, shortened: (§2)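 Real-time, in one plate: 600 HEK293 cells/well with dead-cell DNA dye, pinned compound after 5 h, 37 C incubation over 40 h; viable cells give no appreciable fluorescence.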

[3] = qHTS RealTime-Glo MT Cell Viability Assay in HEK293 cells - 8 hour (AID 1224887); further: nearly all actives have a fitted effect of over 50% in size; further: potency means the concentration at half of the fitted maximal effect
Procedure, shortened: (§3)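 Kinetic, non-lysing viability readout. Seed HEK293 (600/well) with reagent, incubate 5 h at 37 C/5% CO2, pin 23 nL compound in DMSO, incubate at 37 C, read luminescence at 0, 8, 16, 24, 32, 40 h.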

[4] = A CellTox Green Cytotoxicity Assay to monitor cytotoxicity in HepG2 cells - 32 hour (AID 1224883); further: nearly all actives have a fitted effect of over 50% in size; further: potency means the concentration at half of the fitted maximal effect
Procedure, shortened: as §1

[5] = qHTS RealTime-Glo MT Cell Viability Assay in HEK293 cells - 24 hour (AID 1224886); further: nearly all actives have a fitted effect of over 50% in size; further: potency means the concentration at half of the fitted maximal effect
Procedure, shortened: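 HEK293 cells seeded with NanoLuc/prosubstrate reagent, rested 5 h at 37 C, then dosed and kept at 37 C up to 40 h. Nonlytic real-time luminescence from viable cells read at 0, 8, 16, 24, 32 and 40 h.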

[6] = qHTS assay to identify small molecule antagonists of the estrogen receptor alpha (ER-alpha) signaling pathway using the BG1 cell line in the presence of 0.1 nM 17-beta-estradiol - cell viability counter screen (AID 1259241); further: potency means the concentration at half of the fitted maximal effect; nearly all actives have a fitted effect of over 40% in size
Procedure, shortened: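 CellTiter-Fluor read (30 min, 37C) on ER-alpha/ERE-luc VM7Luc4E2 cells; 22 hr compound treatment; agonist 0.1 nM E2 final; same-well multiplex.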

[7] = qHTS assay to identify small molecule phospholipidosis (PLD) inducers (AID 1259344; active means well fitted curve in the direction sought with a large enough effect; inconclusive means small, poorly fitted or top-dose-only effect, or another doubt; inactive means no such curve, though single readings can be large; an effect the other way counts as inactive or inconclusive; further: potency means the concentration at half of the fitted maximal effect)
Procedure, shortened: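 Read-out is LipidTOX Red fluorescence (ex 595/em 615) imaged in HepG2 cells after 24 h compound exposure at 37 C, with Hoechst nuclear counterstain (ex 352/em 461) allowing per-cell normalisation.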

[8] = A CellTox Green Cytotoxicity Assay to monitor cytotoxicity in HEK293 cells - 32 hour (AID 1224881); further: nearly all actives have a fitted effect of over 40% in size; further: potency means the concentration at half of the fitted maximal effect
Procedure, shortened: as §2

[9] = A CellTox Green Cytotoxicity Assay to monitor cytotoxicity in HEK293 cells - 16 hour (AID 1224888); further: potency means the concentration at half of the fitted maximal effect; nearly all actives have a fitted effect of over 35% in size
Procedure, shortened: as §2

[10] = qHTS RealTime-Glo MT Cell Viability Assay in HepG2 cells - 16 hour (AID 1224885); further: nearly all actives have a fitted effect of over 50% in size; further: potency means the concentration at half of the fitted maximal effect
Procedure, shortened: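 HepG2 cells (600/well) were dispensed with RealTime-Glo reagents, incubated 5 h at 37 °C, then treated with compounds in DMSO for up to 40 h. Nonlytic NanoLuc luminescence reflecting viable cells was read at each stated time point.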

[11] = qHTS assay to identify small molecule antagonists of the androgen receptor (AR) signaling pathway using the MDA cell line in the presence of 0.5 nM R1881 - cell viability counter screen (AID 1259242); further: potency means the concentration at half of the fitted maximal effect; nearly all actives have a fitted effect of over 45% in size
Procedure, shortened: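 Cells seeded at 3,000/well and allowed 5 hr at 37C, 0% CO2 before compound transfer and R1881 (0.5 nM final) addition; 16 hr later, live-cell protease fluorescence indicated cytotoxicity.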

[12] = qHTS RealTime-Glo MT Cell Viability Assay in HEK293 cells - 0 hour (AID 1224880); further: nearly all actives have a fitted effect of over 45% in size; further: potency means the concentration at half of the fitted maximal effect
Procedure, shortened: as §3

[13] = biological target: Androgen receptor (Homo sapiens) (UniProt P10275); test: qHTS assay to identify small molecule antagonists of the androgen receptor (AR) signaling pathway using the MDA cell line in the presence of 0.5 nM R1881 (AID 1259243); further: nearly all actives have a fitted effect of over 50% in size
UniProt P10275, sequence (P10275 whole entry, looked up): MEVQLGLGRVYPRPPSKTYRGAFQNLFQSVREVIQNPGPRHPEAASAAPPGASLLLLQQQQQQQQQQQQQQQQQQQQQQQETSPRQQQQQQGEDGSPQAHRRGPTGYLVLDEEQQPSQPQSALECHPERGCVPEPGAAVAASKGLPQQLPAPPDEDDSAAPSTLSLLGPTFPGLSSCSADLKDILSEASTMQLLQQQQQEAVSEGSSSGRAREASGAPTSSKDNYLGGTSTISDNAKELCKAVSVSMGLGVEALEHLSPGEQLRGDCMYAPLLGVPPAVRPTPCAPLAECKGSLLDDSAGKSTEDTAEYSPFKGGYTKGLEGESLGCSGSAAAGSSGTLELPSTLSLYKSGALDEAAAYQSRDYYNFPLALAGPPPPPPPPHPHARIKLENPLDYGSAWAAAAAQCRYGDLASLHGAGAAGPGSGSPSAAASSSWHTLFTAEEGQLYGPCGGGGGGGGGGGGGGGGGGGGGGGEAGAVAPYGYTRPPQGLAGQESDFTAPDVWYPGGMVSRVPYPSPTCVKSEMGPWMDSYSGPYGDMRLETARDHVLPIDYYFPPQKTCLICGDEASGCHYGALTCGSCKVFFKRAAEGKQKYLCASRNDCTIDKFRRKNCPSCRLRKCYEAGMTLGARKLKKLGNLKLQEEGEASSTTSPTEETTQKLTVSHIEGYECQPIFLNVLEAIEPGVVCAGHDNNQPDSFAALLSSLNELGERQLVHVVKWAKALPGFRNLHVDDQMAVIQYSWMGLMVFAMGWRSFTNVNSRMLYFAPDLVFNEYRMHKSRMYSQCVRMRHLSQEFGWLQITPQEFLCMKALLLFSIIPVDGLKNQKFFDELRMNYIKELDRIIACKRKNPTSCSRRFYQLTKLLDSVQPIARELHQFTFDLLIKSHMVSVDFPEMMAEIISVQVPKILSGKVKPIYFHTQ
Procedure, shortened: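 Luminescence from an AR/GR-responsive MMTV-luciferase construct in MDA-kb2 breast carcinoma cells, read 30 min after ONE-Glo, following 16 hr co-treatment with compounds and 0.5 nM R1881.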

[14] = A CellTox Green Cytotoxicity Assay to monitor cytotoxicity in HepG2 cells - 8 hour (AID 1224890); further: potency means the concentration at half of the fitted maximal effect; nearly all actives have a fitted effect of over 45% in size
Procedure, shortened: as §1
Tags describe the fitted curve by direction and shape.

Cn1sc(Cl)cc1=O
Potency [1]: inactive
Potency [2]: inactive
Potency [3]: inactive

CC(=O)OC1(c2ccccc2)CCN(CCc2ccccc2)CC1
Potency [1]: inconclusive [activator, single point]
Potency [4]: inconclusive [activator, single point]
Potency [5]: active: 28.2 µM
Potency [6]: inconclusive [cytotoxic, partial curve]
Potency [7]: inconclusive [activator, single point]

CCOC(=O)C1OC1(C)c1ccccc1 (configuration not stated)
Potency [1]: inactive
Potency [8]: inconclusive [activator, single point]
Potency [9]: inconclusive [activator, single point]

CC[C@H](C)[C@H]1O[C@]2(C=C[C@@H]1C)C[C@@H]1C[C@@H](C/C=C(\C)[C@@H](O[C@H]3C[C@H](OC)[C@@H](O[C@H]4C[C@H](OC)[C@@H](NC)[C@H](C)O4)[C@H](C)O3)[C@@H](C)/C=C/C=C3\CO[C@@H]4[C@H](O)C(C)=C[C@@H](C(=O)O1)[C@]34O)O2
Potency [1]: active: 9.77 µM
Potency [10]: active: 12.3 µM
Potency [9]: active: 15.5 µM
Potency [6]: active: 15.4 µM

CN1C(=O)CN=C(c2ccccc2)c2cc(Cl)ccc21
Potency [1]: inconclusive [activator, single point]
Potency [5]: inconclusive [cytotoxic, partial curve] and inactive
Potency [9]: inconclusive [activator, single point]

CC1=C(C(=O)Nc2ccccc2)SCCO1
Potency [1]: inactive
Potency [4]: inactive

CCOC(=S)S
Potency [1]: inconclusive [activator, single point]
Potency [4]: inconclusive [activator, single point]

CC(C)OC(=S)S
Potency [1]: inconclusive [activator, single point]
Potency [4]: inconclusive [activator, single point]
Potency [5]: inconclusive [rising, partial curve]
Potency [3]: inconclusive [rising, partial curve, poor fit]

CCC(COC(=O)c1cc(OC)c(OC)c(OC)c1)(c1ccccc1)N(C)C (configuration not stated)
Potency [1]: inactive
Potency [5]: inconclusive [cytotoxic, partial curve]
Potency [3]: active: 26.8 µM

CSc1nc(NC(C)C)nc(NC(C)C)n1
Potency [1]: inconclusive [activator, partial curve, poor fit]
Potency [5]: inconclusive [cytotoxic, partial curve, poor fit]

CCCCN(CCCC)C(=S)[S-].CCCCN(CCCC)C(=S)[S-].[Zn+2]
Potency [1]: active: 24.5 µM
Potency [10]: active: 34.7 µM
Potency [6]: active: 17.2 µM
Potency [11]: inconclusive [cytotoxic, single point]

c1ccc2c(c1)Nc1ccccc1S2
Potency [1]: inconclusive [activator, partial curve, poor fit]
Potency [2]: inconclusive [activator, single point]
Potency [5]: active: 11 µM and active: 10.7 µM

NNc1ccccc1
Potency [12]: inconclusive [falling, partial curve]
Potency [10]: inactive

CC[n+]1ccccc1
Potency [12]: inactive
Potency [5]: inconclusive [cytotoxic, partial curve]
Potency [6]: inconclusive [cytotoxic, partial curve]

CC1Sc2c(C(=O)O)c(=O)c3cc(F)c(N4CCNCC4)cc3n21 (configuration not stated)
Potency [12]: inactive

CC1(C)[C@H](C=C(Cl)Cl)[C@@H]1C(=O)O[C@@H](C#N)c1cccc(Oc2ccccc2)c1
Potency [12]: inactive

BrCC(Br)c1ccccc1 (configuration not stated)
Potency [1]: inactive
Potency [13]: inactive

CC[C@@H](CO)NC(=O)[C@@H]1C=C2c3cccc4c3c(cn4C)C[C@H]2N(C)C1
Potency [12]: inactive

CC(C)(OO)c1ccccc1
Potency [12]: inconclusive [falling, partial curve, poor fit]
Potency [2]: inactive

CC(Cl)(Cl)C(=O)O
Potency [12]: inactive

Nc1ccc(Br)cc1
Potency [12]: inconclusive [rising, single point]
Potency [8]: inactive
Potency [10]: inactive

CCC(OC(C)=O)C(CC(C)NC)(c1ccccc1)c1ccccc1 (configuration not stated)
Potency [12]: inconclusive [rising, partial curve]
Potency [2]: inconclusive [activator, partial curve, poor fit]
Potency [10]: inconclusive [cytotoxic, single point]
Potency [5]: active: 55.4 µM
Potency [14]: inconclusive [activator, single point]
Potency [6]: inconclusive [cytotoxic, single point]
Potency [11]: active: 43.6 µM
Potency [7]: inconclusive [activator, single point]
